# Measurements as given in paper PMC4336329 (PLoS ONE, 2015).
# The campaign covered roughly 310,000 compounds. About 14,000 (4.5%) showed an effect of 50% or more. The effect is printed as a negative number. Some of the results follow.
# Target: human ether-à-go-go-related gene (hERG) potassium channel (human, UniProt Q12809)
# Test: primary screen, population patch clamp on CHO cells stably expressing hERG
# 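Further: peak tail current of the secondary pulse compared with the same well before compound.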
# human ether-à-go-go-related gene (hERG) potassium channel, sequence (Q12809 whole entry, looked up): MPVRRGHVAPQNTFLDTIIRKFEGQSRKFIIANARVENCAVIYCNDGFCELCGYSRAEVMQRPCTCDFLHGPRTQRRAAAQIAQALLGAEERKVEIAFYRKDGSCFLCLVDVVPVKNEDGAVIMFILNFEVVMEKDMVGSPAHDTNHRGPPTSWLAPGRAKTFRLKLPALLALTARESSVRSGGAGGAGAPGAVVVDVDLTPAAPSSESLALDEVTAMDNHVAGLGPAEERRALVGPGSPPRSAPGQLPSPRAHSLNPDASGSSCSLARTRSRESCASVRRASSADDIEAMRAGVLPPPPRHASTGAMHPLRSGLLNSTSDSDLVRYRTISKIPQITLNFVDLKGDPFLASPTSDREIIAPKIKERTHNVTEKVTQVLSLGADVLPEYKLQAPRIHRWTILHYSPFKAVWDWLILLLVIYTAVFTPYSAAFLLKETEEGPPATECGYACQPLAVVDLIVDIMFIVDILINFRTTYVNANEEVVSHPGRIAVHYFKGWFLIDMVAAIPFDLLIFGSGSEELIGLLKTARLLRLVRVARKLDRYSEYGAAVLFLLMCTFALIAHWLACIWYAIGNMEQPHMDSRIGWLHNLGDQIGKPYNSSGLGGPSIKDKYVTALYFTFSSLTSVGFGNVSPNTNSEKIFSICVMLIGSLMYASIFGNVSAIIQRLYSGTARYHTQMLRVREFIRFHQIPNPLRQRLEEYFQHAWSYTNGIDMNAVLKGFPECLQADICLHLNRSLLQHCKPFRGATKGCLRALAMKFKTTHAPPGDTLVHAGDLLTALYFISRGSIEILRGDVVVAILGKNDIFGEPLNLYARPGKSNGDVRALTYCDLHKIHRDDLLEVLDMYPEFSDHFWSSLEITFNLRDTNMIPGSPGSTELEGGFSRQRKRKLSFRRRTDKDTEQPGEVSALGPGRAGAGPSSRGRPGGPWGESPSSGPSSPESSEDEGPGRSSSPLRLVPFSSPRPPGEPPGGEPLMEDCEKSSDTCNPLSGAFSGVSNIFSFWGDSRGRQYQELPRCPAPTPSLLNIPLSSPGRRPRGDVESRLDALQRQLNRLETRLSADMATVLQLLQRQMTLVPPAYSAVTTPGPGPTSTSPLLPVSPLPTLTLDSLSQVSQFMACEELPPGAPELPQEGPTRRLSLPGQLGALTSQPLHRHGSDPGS
row,Structure (SMILES),"hERG current change (%, negative = inhibition) at 10uM [%]"
1,Cc1ccc(Sc2cnc(N)nc2C)cc1,9.11
2,COc1cc2c(cc1OC)CN(C(=O)c1ccc([N+](=O)[O-])o1)CC2,-32.9
3,Cc1c(NC(=O)CSc2nnnn2-c2ccc(O)cc2)c(=O)n(-c2ccccc2)n1C,-7.29
4,O=c1c2ccccc2nnn1CSc1nnc(C2COc3ccccc3O2)n1-c1ccccc1 (stereo not drawn),-6.89
5,COc1ccc(Cn2nc(C)cc2C)cc1OC,-1.14
6,COc1ccc(Nc2nnc(-c3ccc(O)cc3)c3ccccc23)cc1C(N)=O,16.4
7,CC1CCN(c2nc(-c3ccncc3)nc3ccccc23)CC1,-27
8,COc1ccc(-c2sc(Nc3ccccc3)n[n+]2-c2ccc(F)cc2)c(OC)c1OC.[Cl-],-72.2
9,Cc1nn(Cc2ccccc2)c(C)c1NC(=O)c1ccc([N+](=O)[O-])cc1[N+](=O)[O-],-57
10,O=C1C(=O)N(CCCN2CCOCC2)C(c2ccc(F)cc2)/C1=C(/O)c1ccccc1 (stereo not drawn),23
11,Cc1cc(S(=O)(=O)NCc2ccccc2)ccc1OCC(=O)N1CCCC1,-3.66
12,CCOc1ccc(-c2cc(CCCC(=O)Nc3cccc(OC)c3)no2)cc1,15.9
13,NC1=NC(=Nc2cccc(S(=O)(=O)N3CCOCC3)c2)c2ccccc21,-14.5
14,CC(=O)c1ccc(N2CCN(C(=O)C3CCCN(S(=O)(=O)c4cnc[nH]4)C3)CC2)cc1 (stereo not drawn),-3.5
15,O=C1c2ccccc2C(=O)N1Nc1ccc([N+](=O)[O-])cc1[N+](=O)[O-],16
16,CSc1ccc(C(=O)c2[nH]c(=O)[nH]c2C)cc1,6.03
17,CC(=Nc1ccccc1)c1sc2ccccc2c1O,-10.8
18,OCC[C@@H]1C[C@H](O)[C@@H](O)[C@@]2(Cc3ccccc3CCO2)O1,10.6
19,Cc1c(C(=O)Nc2ccc(Nc3ccccc3)cc2)cccc1[N+](=O)[O-],13.2

row,Structure (SMILES),"hERG current change (%, negative = inhibition) at 10uM [%]"
1,CN1CCN(C(=O)Cn2c(=O)oc3cc(S(=O)(=O)NCc4ccccc4)ccc32)CC1,5.52
2,COc1ccccc1OCC(=O)Nc1cc(C)ccc1NC(=O)c1ccco1,-0.0957
3,COc1ccccc1OCC(=O)NCC(c1cccs1)N1CCOCC1 (stereo not drawn),-4.48
4,CCOc1ccc(S(=O)(=O)Nc2ccncc2)c(C)c1C,8.19
5,CCn1c(=O)[nH]c2ccccc2c1=O,28.8
6,CCC(CC)COC(=O)C1=C(C)NC(=O)NC1c1ccc2c(c1)OCO2 (stereo not drawn),-6.81
7,CCOC(=O)c1cnc2c(cnn2C)c1NCCC#N,-7.43
8,CCOC(=O)N1CCC(N2CCCC(C(=O)c3cc(F)ccc3OC)C2)CC1 (stereo not drawn),-86.7
9,O=C(COC(=O)CNC(=O)c1ccc(Cl)cc1Cl)NCC1CCCO1 (stereo not drawn),-1.81
10,COc1ccc(OC)c(C(=O)CSc2nnnn2C)c1,0.419
11,Clc1ccccc1OCc1nnc2n1CCCCC2,-19.2
12,O=C(NCc1ccccc1CN1CCCCC1)c1ccc(Cl)cc1N1CCCC1=O,-30.4
13,Cc1ccc2nc(SCC(=O)Nc3ccccc3N3CCOCC3)c(C#N)cc2c1,0.653
14,O=C(O)c1ccccc1C(=O)NCc1c(Cl)cccc1Sc1ccc(Cl)cc1,10.7
15,CCC(OC(=O)C1=Cc2ccccc2OC1)C(=O)NCc1ccco1 (stereo not drawn),7.53
16,COc1ccc(-c2oc(NC(=O)CSc3ncn[nH]3)c(C#N)c2-c2ccc(OC)cc2)cc1,13.7
17,CCn1c(COc2cccc(OC)c2)nnc1SCC(=O)NCC1CCCO1 (stereo not drawn),9.84
18,CNC(=O)c1[nH]cnc1C(=O)N[C@@H](Cc1ccccc1)C(=O)OC(C)(C)C,-5.69
19,S=c1[nH]nc(C2CCCCC2)n1/N=C/C(Cl)=C\c1ccccc1,5.07

row,Structure (SMILES),"hERG current change (%, negative = inhibition) at 10uM [%]"
1,COc1ccccc1NC(=O)CCN1CC(C)OC(C)C1.Cl (stereo not drawn),-2.84
2,COc1ccc2c(c1)SCC(=O)N2C,-11.1
3,CN(C)CCn1c2c(c(SCC(=O)Nc3ccccc3)nc1=O)CCCC2,-26.7
4,Cc1ccc(/C=C2\C(=O)NC(=O)N(CC3CCCO3)C2=O)s1 (stereo not drawn),13.1
5,O=C(NCc1ccco1)C1CCCN1C(=O)Nc1ccc(Cl)cc1 (stereo not drawn),9.16
6,CCN(CC)C(=O)c1ccccc1NC(=O)CN1C(=O)c2ccccc2C1=O,23
7,CC(=O)c1cccc(OCC(=O)Nc2ccccc2N2CCOCC2)c1,-24.3
8,Cc1ccccc1C(=O)NCC(=O)NNC(=O)CCN1CCN(c2ccccc2)CC1,21.3
9,COc1ccccc1N1CCN(CC(=O)Nc2ccc3c(c2)OCCO3)CC1,-6.03
10,CCc1cc(=O)[nH]c(SCC(=O)NCC2CCCO2)n1 (stereo not drawn),-5.07
11,COc1ccc(-n2nc(C(=O)NCC(=O)Nc3cc(OC)c(OC)c(OC)c3)c3ccccc3c2=O)cc1OC,11.3
12,CN(C(=O)/C=C/c1ccc([N+](=O)[O-])s1)c1ccccc1,-8.63
13,CC12CCC(=O)N1C(C(=O)Nc1ccccc1N1CCOCC1)CS2 (stereo not drawn),-5.99
14,Cc1c(Cl)cccc1NC(=O)C1CCCN(S(C)(=O)=O)C1 (stereo not drawn),22
15,CC(=O)Nc1ccc2c(c1)CCCC2,5.05
16,CC1CCN(CCC(=O)Nc2nccs2)CC1,15.5
17,O=C(CN1C(=O)NC2(CCCC2)C1=O)OCc1cc(=O)n2cc(Br)ccc2n1,0.0178
18,OCCNCC12CC3CC(CC(C3)C1)C2,22.9
19,O=C(CCc1nnc2ccc(N3CCCC3)nn12)Nc1ccc(F)cc1F,8.27
